A number of entries come with more than one value. The list is limited to them. An entry can have further records. The values listed for one entry repeat one measurement in other runs, samples, wells, individuals or studies. Records carry a tag for their origin. Letters hold for one entry only.

Our source for the AC40 values is PubChem BioAssay AID686930 (Broad Institute, 2013).

This assay has as its system V. cholerae WN1103 ΔluxQ, lux luminescence, 6 h. Nature of the assay: Confirmatory dose response, V. cholerae WN1103 δluxq inducers of light production, absence of autoinducers (AID 686930).

For `Cc1ccc2cc3c(NC(=O)c4ccco4)nn(C)c3nc2c1`, the AC40 was 4.13 µM [sample A] and 57 µM [sample B].
